# Measurements as given in PubChem BioAssay AID1508624 (National Center for Advancing Translational Sciences (NCATS), 2021).
# About 120 (0.25%) of roughly 48,000 compounds were called active. Not shown: some 4% with an inconclusive outcome. Calls come from the whole dose curve; as a rule, active = well fitted activation curve with a large enough effect; inconclusive = small, poorly fitted or top-dose-only effect, or another doubt; inactive = no such curve, though single readings can be large or run the other way. Some of the results follow.
# Assay: Primary qHTS for Identification of Small Molecule Activators of Huntingtin-Antisense Promoter Activity; note: nearly all actives have a fitted effect of over 55% in size
# Settings: HEK293 HTT-AS promoter firefly luciferase reporter, 24 h; series mostly up to 57.5 µM; activity change, positive = activation: at the top concentration
# Method in brief: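 HEK293 cells carrying firefly luciferase reporters were seeded at 2,500 per well in Opti-MEM and cultured for 24 h. They were then treated with compounds at up to 57.5 uM final for 24 h at 37 degrees C before Dual-Glo luminescence readout.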
# Potency is the fitted concentration of half-maximal effect.
SMILES,"activity change, positive = activation",Potency
COc1ccccc1NC(=O)c1oc2ccccc2c1NC(=O)C(C)C,inactive: 11.1%,
Cc1cccc(NC(=O)CSc2nnc3scc(-c4ccccc4)n23)c1,inactive: -11.1%,
O=C1CCc2cc(S(=O)(=O)NCc3ccc(Cl)cc3)cc3c2N1CC3,inactive: -2.16%,
COc1cccc(-c2nnc(-c3cc4cc(Cl)ccc4oc3=O)o2)c1,"inactive: 7.45% [at 11.5 µM, percent change from vehicle, -100% = no light]",
CN(C)CCN1CCN(c2cccc(Cl)c2)C1=O,inactive: 0.241%,
COc1cc(-c2noc(CSc3nc(-c4ccc(F)cc4)cc(=O)[nH]3)n2)cc(OC)c1OC,inactive: -13.1%,
COc1ccccc1NC(=O)Cn1cnc2c(nc3n2CCCCC3)c1=O,inactive: 4.12%,
CCC1CCC(C(=O)NC(C(=O)NCCN(CC(C)C)CC(C)C)C(C)C)CC1 (configuration not stated),inactive: -2.75%,
Cc1ccccc1CNC(=O)c1ccccc1NC(=O)c1nsc2ccccc12,inactive: 12.3%,
CC(C)(C)c1ccc(CSc2nc3c(c(=O)[nH]2)CCCC3)cc1,inactive: -32.2%,
O=C(Nc1ccc(Cl)c(C(F)(F)F)c1)C1CCCN(S(=O)(=O)c2cccc3cccnc23)C1 (configuration not stated),inactive: 2.65%,
CC1CCN(S(=O)(=O)c2ccc3c(c2)c(=O)c(C(=O)NCc2ccc(Cl)cc2)cn3C)CC1,"inactive: 4.25% [at 11.5 µM, percent change from vehicle, -100% = no light]",
O=c1c(N2CCN(c3cccc(C(F)(F)F)c3)CC2)csc2ccccc12,inactive: -23.1%,
Clc1ccccc1Cn1cccc1C1=NC(Cc2ccccc2)CO1 (configuration not stated),inactive: -8.72%,
Cn1c(SCC(N)=O)nc2c([nH]c3ccccc32)c1=O,inactive: 13.3%,
O=C(O)c1ccc(Nc2nc(-c3ccccc3)c3cc(Br)ccc3n2)cc1,inactive: -38.3%,
Cc1cccc(NC(=O)CSc2nc3ccc(NC(=O)COc4ccc(Cl)cc4)cc3s2)c1,inactive: -39.5%,
Cc1c(NC(=O)Cc2ccc(F)cc2)cccc1-c1nc2cccnc2s1,inactive: -15.8%,
Fc1ccc(-c2nc(-c3cccs3)c(-c3cccs3)[nH]2)cc1,inactive: -27.4%,
Cc1nn(-c2ccccc2)c2c1N(CC(=O)NCc1ccc(N(C)C)cc1)C(=O)CS2,inactive: -10.7%,
O=C(Nc1nnc(SCc2cc(=O)c3ccccc3[nH]2)s1)c1ccccc1,inactive: -33.7%,
O=C(NCCOCCO)C(=O)Nc1c2c(nn1-c1ccc(F)cc1)CSC2,inactive: -13.3%,
Cc1ccc2cc3cc(C(=O)N4CCN(c5cccc(C(F)(F)F)c5)CC4)sc3nc2c1,inactive: 0.558%,

SMILES,"activity change, positive = activation",Potency
CCC(=O)N1CCc2cc(S(=O)(=O)CCC(=O)N3CCN(c4ccccc4Cl)CC3)ccc21,inactive: -4.32%,
CN(c1ncnc2c1c(-c1ccccc1)cn2-c1ccc(F)cc1)C1CCCCC1,inactive: -17.5%,
CCOC(=O)c1cc(-c2ccccc2)n(CCC(=O)Nc2ccc(C(F)(F)F)cc2)c1C,inactive: -40.3%,
Cc1ccc(N(Cc2cccs2)C(=O)c2ccccc2)cc1,inactive: -34%,
O=C(NCCn1cc(SCc2cccc(F)c2)c2ccccc21)c1cccc(C(F)(F)F)c1,inactive: -49.5%,
COc1ccc(CCNC(=O)c2c(C)oc3ncn(C)c(=O)c23)c(OC)c1,inactive: -2.51%,
CC(=O)Nc1ccc(N(C(=O)Cn2nnc3ccccc32)C(C(=O)NCc2ccccc2)c2ccc(C)cc2)cc1 (configuration not stated),inactive: -18.4%,
Cc1ccc2[nH]c(=O)c3cc(C(=O)NCCCN4CCC(C)CC4)sc3c2c1,inactive: -16.6%,
CCN(C(=O)CSc1nc2ccccc2n1Cc1ccc(F)cc1Cl)c1ccccc1,inactive: -21.1%,
CCOC(=O)C(Cc1c[nH]c2ccccc12)NC(=O)COc1ccc(CC)cc1 (configuration not stated),inactive: -18.5%,
Cc1cc(NC(=O)CN2CCC(C)CC2)nc2c1c(=O)oc1ccccc12,inactive: 2.01%,
Cc1ccc(Cl)cc1NC(=O)CN1C(=O)CCc2ccccc21,inactive: -15.2%,
CCCCNc1oc(-c2ccc(COc3ccc(OC)cc3)o2)nc1C#N,inactive: -27.6%,
COc1ccc(C)cc1N(C)C(=O)CCc1nc(-c2ccccc2F)no1,inactive: -19.7%,
CCOC(=O)c1c(C)[nH]c(C)c1S(=O)(=O)N1CCC(C(=O)NCc2ccccc2Cl)CC1,inactive: -22.8%,
CN(C)c1ccc(Nc2ncnc3sc4c(c23)CCCC4)cc1,inactive: -78.6%,
COc1ccc(CC(=O)NCc2nc3cccnc3n2Cc2ccccc2)cc1,inactive: -9.27%,
COC(=O)c1ccccc1NC(=O)CCCn1c(=O)c2cccn2c2cccnc21,inactive: -11.2%,
Cc1noc(/C=C/c2ccccc2F)c1S(=O)(=O)N1CCC(C(=O)N2CCOc3ccccc32)CC1,inactive: 22.7%,
COc1ccc(C)cc1NC(=O)Nc1cccc(-c2noc(C)n2)c1,inactive: -16.6%,
CCc1ccc(NC(=O)Cn2c(=O)n(CCC(=O)NCCc3ccc(Cl)cc3)c(=O)c3ccccc32)cc1,inactive: -8.8%,
COc1ccccc1CCNC(=O)C(C)Sc1nc(-c2ccccc2)cc(C(F)(F)F)n1 (configuration not stated),inactive: -13.4%,
COc1ccc(C(=O)Nc2nc(-c3nnn(-c4ccc(C(C)C)cc4)c3C)ns2)cc1,inactive: -13.5%,

SMILES,"activity change, positive = activation",Potency
O=C(Cn1ncn2c(cc3ccccc32)c1=O)NCc1ccc(F)cc1,inactive: -12.7%,
Cc1ccc(-c2cc(-c3ccccc3)c(C#N)c(SCC(O)CS(=O)(=O)Cc3ccccc3)n2)cc1 (configuration not stated),inactive: -9.87%,
CCCOc1ccc(CNC(=O)c2[nH]c3cc(OC)ccc3c2Sc2ccccc2)cc1,inactive: 9.04%,
Cc1ccc(/C=C/C(=O)Nc2ccccc2C(N)=O)o1,,active: 3.98 µM
COc1cccc(CNC(=O)c2cc(Sc3cccc(Cl)c3)nc3ccccc23)c1,inactive: -35.5%,
COc1ccccc1NC(=O)COc1ccc(-c2nn(C)c(=O)c3ccccc23)cc1,inactive: -34.2%,
CC(=O)N1c2ccc(S(=O)(=O)Nc3ccc(Cl)cc3C)cc2CC1C (configuration not stated),inactive: -44.5%,
COc1cc(OC)cc(-c2nc3n(n2)C(c2ccccc2)C(C(N)=O)=C(C)N3)c1 (configuration not stated),inactive: -7.36%,
Cc1sc(-c2cc3c([nH]c2=O)CC(c2ccccc2)CC3=O)nc1-c1ccc(Cl)cc1 (configuration not stated),inactive: -40.6%,
Cc1c(C(=O)N2CCOCC2)oc2c1-c1nn(CC(=O)NCc3cccc(Cl)c3)cc1CC2,inactive: -29.5%,
CCCCS(=O)(=O)c1oc(-c2ccc(F)cc2)nc1S(=O)(=O)c1ccc(C)cc1,inactive: -91.5%,
COc1ccc(-c2c(C)c3ccc(O)c(CN4CCN(CCO)CC4)c3oc2=O)cc1OC,inactive: -12.3%,
Cc1ccc(CCNC(=O)c2c(C)oc3ncn(CC(C)C)c(=O)c23)cc1,inactive: -22.6%,
CC(C)(C)OC(=O)N1CCC(c2c(C(=O)NCCc3ccccc3)cnn2-c2ccc(F)cc2F)CC1,inactive: -13.9%,
CCOC(=O)c1c(NC(=O)COc2cccc(C)c2C)sc2c1CCC(CC)C2 (configuration not stated),inactive: 11%,
Cn1c(=O)oc2cc(S(=O)(=O)N3CCC(C(=O)N4CCN(c5ccccc5F)CC4)CC3)ccc21,inactive: -23.5%,
O=C(Cn1cnc2ccccc2c1=O)NCCC(=O)Nc1ccc(F)cc1,"inactive: 16.8% [at 11.5 µM, percent change from vehicle, -100% = no light]",
CC(C)COc1ccc(C(=O)Nc2cc(-c3ccccc3)no2)cc1,inactive: 16.3%,
COc1cccc(N2CCN(S(=O)(=O)c3cc(-c4cc(C)no4)ccc3C)CC2)c1,inactive: 13.2%,
CCCCN(CC)CCCNC(=O)Cn1ncc2c([nH]c3ccc(C)cc32)c1=O,inactive: -7.14%,
O=c1c2cn[nH]c2nc(SCc2c(F)cccc2F)n1-c1ccc(Cl)cc1,inactive: -4.41%,
COc1ccc(N(CC(=O)N2CCN(c3ccc(F)cc3)CC2)S(=O)(=O)c2c(C)noc2C)cc1,inactive: -18.3%,
CCOc1cccc(C(=O)Nc2nc3c(s2)CC(C(C)(C)C)CC3)c1 (configuration not stated),inactive: -7.37%,

SMILES,"activity change, positive = activation",Potency
CCCCN1C(=O)C(O)(CC(=O)c2ccc(C)cc2C)c2cc(Br)ccc21 (configuration not stated),inactive: -29.2%,
O=C(NCc1ccco1)c1ccc2c(c1)N(Cc1ccc(F)cc1)C(=O)c1ccccc1S2(=O)=O,inactive: -32.6%,
CC(=O)Nc1ccccc1-c1nc2ccccc2n(CC(=O)Nc2cccc(C(F)(F)F)c2)c1=O,inactive: -28.8%,
COc1ccc(/C=C/C(=O)Nc2nc(-c3cccs3)ns2)cc1OC,inactive: -34.6%,
Cc1ccc(CO)cc1Nc1ncnc2onc(-c3ccc(F)cc3)c12,inactive: -21.9%,
CCOc1cccc2cc(S(=O)(=O)c3ccccc3F)c(=O)oc12,inactive: -66.4%,
CCS(=O)(=O)N1CC(=O)N(c2ccc(Cl)cc2)C(C)(C(=O)NC2CCCCC2)C1 (configuration not stated),inactive: -4.08%,
CC1=C(c2ccc(C(C)C)cc2)S(=O)(=O)N=C1N1CCC(C(=O)NCCc2ccco2)CC1,inactive: -27.9%,
COc1cccc(-c2nc(SCC(=O)NC3CCCC3)c(-c3ccc(C)cc3)[nH]2)c1,inactive: -23.6%,
Cc1ccc(CNC(=O)c2ccc3nc(SCc4ccc(F)cc4)[nH]c3c2)cc1,inactive: -87.1%,
CCN(CC)C(=O)CSc1nc(-c2ccc(C)cc2)nc2c1Cc1c(CO)cnc(C)c1O2,inactive: -28.4%,
CCc1cccc(NC(=O)C(Cc2ccccc2)n2cccc2)c1 (configuration not stated),inactive: -31%,
CCOc1ccc(CNC(=O)c2ccc3c(c2)nc2n3CCOC2)cc1OC,inactive: -21.1%,
COc1ccc(N2CC(NC(=O)c3ccc(S(=O)(=O)N4CCCCC4)cc3)CC2=O)cc1 (configuration not stated),inactive: -34.4%,
CCc1ccc(NC(=O)CN(c2cc(C)cc(C)c2)S(=O)(=O)c2c(C)[nH]c(=O)[nH]c2=O)cc1,inactive: -11.8%,
CC1=C(C(=O)Nc2ccc(F)cc2F)C2(CCN(C(C)C)CC2)OC1=O,inactive: 1.22%,
COc1ccc(C(=O)NCc2ccc(OCCN(C)C)cc2)cc1OC,inactive: -13.5%,
COc1cccc(NC(=O)CC2Nc3cc(C)c(C)cc3NC2=O)c1 (configuration not stated),inactive: -0.881%,
Cc1ccc(C)c(N2CCN(C(=O)CSCc3ccccc3Cl)CC2)c1,inactive: -11.3%,
Cc1cccc(NC(=O)CCS(=O)(=O)c2cc(Br)cc3c2N(C(=O)C2CC2)CC3)c1,inactive: -13.2%,
Cc1ccc(CNC(=O)CC2Oc3ccc(Cl)cc3NC2=O)cc1 (configuration not stated),inactive: -9.99%,
CCOc1ccc(NS(=O)(=O)c2ccc3c4c(cccc24)C(=O)N3)cc1,"inactive: 8.71% [at 11.5 µM, percent change from vehicle, -100% = no light]",
Cc1ccc(CN(Cc2ccco2)C(=O)COc2ccc(C)c(C)c2)cc1,inactive: -2.96%,
